Laboratory results reported in patent US11566057B2, “Long-acting co-agonists of the glucagon and GLP-1 receptors” (Merck Sharp & Dohme Corp., priority 2017, dated 2023).
pEC50: −log10 of the molar value. Like-named read-outs stand apart in the source and are kept apart here. Part of at least one peptide drawing is inferred or uncertain, most often the ends. At least one structure is not confirmed: it was looked up by name or label, or the drawing left a doubt. Some results were stated once for a whole list of compounds, not compound by compound. Numbered stars: 1 amine (or outer) side, 2 acyl side, 3 side chain; on linkers, the order of the positions; unused ones are H or OH. Square brackets hold non-standard residues; d marks the D form. Side chains are listed from the residue outwards. Peptide text beside a SMILES is read from it. * marks the point of attachment. X1 = O=C([C@H](CCCCn1nncc1COCCOCCN[*:3])N[*:1])[*:2]; Phe(4-CH2NH2) = NCc1ccc(C[C@H](N)C(=O)O)cc1; C18 diacid = O=C(O)CCCCCCCCCCCCCCCCC(=O)*; C16 diacid = O=C(O)CCCCCCCCCCCCCCC(=O)*; γGlu = O=C(O)[C@H](CCC(=O)[*:2])N[*:1]; Met(O2) = CS(=O)(=O)CC[C@H](N)C(=O)O; Palmitoyl = CCCCCCCCCCCCCCCC(=O)*; AEEA = NCCOCCOCC(=O)O; Aib = CC(C)(N)C(=O)O

Tests used:
human GCGR = target: T1, human GCGR (Homo sapiens, UniProt P47871); assay: cAMP activity assay at the Glucagon receptor (GCGR); type: cell-based; conditions: for hGCGR/hGLP1R (hTone): ratio of GCGR EC50 to GLP1R EC50
T1 construct: expressed in transfected cells; growth medium holds Blasticidin and Hygromycin
T1 sequence (P47871 26-477): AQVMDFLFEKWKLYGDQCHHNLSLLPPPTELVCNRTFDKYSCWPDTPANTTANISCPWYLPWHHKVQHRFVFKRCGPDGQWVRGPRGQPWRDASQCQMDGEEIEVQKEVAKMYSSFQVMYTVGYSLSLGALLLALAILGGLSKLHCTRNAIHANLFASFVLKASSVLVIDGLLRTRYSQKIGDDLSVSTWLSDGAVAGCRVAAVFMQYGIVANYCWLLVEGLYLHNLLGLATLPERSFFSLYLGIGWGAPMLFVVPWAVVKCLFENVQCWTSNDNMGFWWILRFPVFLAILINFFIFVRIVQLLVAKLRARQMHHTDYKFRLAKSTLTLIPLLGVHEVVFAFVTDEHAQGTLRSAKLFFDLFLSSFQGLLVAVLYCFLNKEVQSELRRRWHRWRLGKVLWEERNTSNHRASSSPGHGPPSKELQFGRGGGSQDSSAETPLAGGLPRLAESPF
Procedure, shortened: (§1)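 Peptides serially diluted from DMSO (10 points) and added to frozen-stock cells bearing human GLP1R (10,000 cells/well) or GCGR (30,000 cells/well), 1 h at RT, dark. EC50 by four-parameter logistic fit of HitHunter cAMPXS luminescence, read following overnight RT incubation.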

human GLP1R = target: T2, human GLP1R (Homo sapiens, UniProt P43220); assay: cAMP activity assay at the GLP-1 receptor (GLP1R); type: cell-based
T2 construct: expressed in transfected cells; growth medium holds Blasticidin and Hygromycin
T2 sequence (P43220 24-463): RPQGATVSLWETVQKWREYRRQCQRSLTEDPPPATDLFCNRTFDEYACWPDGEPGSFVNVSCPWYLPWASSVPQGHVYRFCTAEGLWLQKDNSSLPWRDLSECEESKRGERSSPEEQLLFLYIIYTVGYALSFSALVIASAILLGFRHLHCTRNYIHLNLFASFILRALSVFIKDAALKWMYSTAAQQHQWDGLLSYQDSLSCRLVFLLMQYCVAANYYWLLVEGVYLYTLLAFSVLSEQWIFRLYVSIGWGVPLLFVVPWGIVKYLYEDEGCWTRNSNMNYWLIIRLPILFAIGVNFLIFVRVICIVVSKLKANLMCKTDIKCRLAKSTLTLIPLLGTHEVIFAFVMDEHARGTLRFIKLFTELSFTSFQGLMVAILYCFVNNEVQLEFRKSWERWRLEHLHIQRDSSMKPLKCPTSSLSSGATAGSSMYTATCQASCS
Procedure, shortened: as §1

[1] = summary statement: EC50 at each of the glucagon and GLP-1 receptors, read-out: EC50 at the glucagon receptor
[2] = summary statement: EC50 at each of the glucagon and GLP-1 receptors, read-out: EC50 at the GLP-1 receptor
[3] = cells expressing human GCGR, cAMP production, buffer with or without 20% human serum (not stated which), read-out: GCGR EC50 human
[4] = cells expressing human GLP1R, cAMP production, buffer with or without 20% human serum (not stated which), read-out: GLP1R EC50 human

CC(C)C[C@H](NC(=O)[C@H](Cc1c[nH]c2ccccc12)NC(=O)[C@H](CCC(N)=O)NC(=O)[C@@H](NC(=O)[C@H](Cc1ccccc1)NC(=O)[C@H](CC(=O)O)NC(=O)[C@H](CCC(N)=O)NC(=O)[C@H](C)NC(=O)[C@H](C)NC(=O)[C@H](CCCNC(=N)N)NC(=O)C(C)(C)NC(=O)[C@H](CC(=O)O)NC(=O)[C@H](CC(C)C)NC(=O)[C@H](Cc1ccc(O)cc1)NC(=O)[C@H](CCCCN)NC(=O)[C@H](CO)NC(=O)[C@H](Cc1ccc(O)cc1)NC(=O)[C@H](CC(=O)O)NC(=O)[C@H](CO)NC(=O)[C@@H](NC(=O)[C@H](Cc1ccccc1)NC(=O)[C@@H](NC(=O)CNC(=O)[C@H](CCC(N)=O)NC(=O)C(C)(C)NC(=O)[C@@H](N)Cc1c[nH]cn1)[C@@H](C)O)[C@@H](C)O)C(C)C)C(=O)N[C@@H](CC(C)C)C(=O)N[C@@H](Cc1ccc(CNC(=O)COCCOCCNC(=O)COCCOCCNC(=O)CC[C@H](NC(=O)CCCCCCCCCCCCCCCCC(=O)O)C(=O)O)cc1)C(=O)N[C@H](C(=O)N[C@@H](CCCCN)C(=O)N[C@@H](CCC(N)=O)C(=O)O)[C@@H](C)O [TP682] (H-H[Aib]QGTFTSDYSKYLD[Aib]RAAQDFVQWLL[Phe(4-CH2NH2)]([AEEA-AEEA-γGlu-C18 diacid])TKQ-OH; N-terminus assumed)
hGCGR/hGLP1R (hTone) (human GCGR): 1.0 | pEC50 (human GCGR; [1]): > 8.30 | pEC50 (human GLP1R; [2]): > 8.30

CC(C)C[C@H](NC(=O)[C@H](CC(C)C)NC(=O)[C@H](Cc1c[nH]c2ccccc12)NC(=O)[C@H](Cc1ccc(CNC(=O)COCCOCCNC(=O)COCCOCCNC(=O)CC[C@H](NC(=O)CCCCCCCCCCCCCCC(=O)O)C(=O)O)cc1)NC(=O)[C@H](CCC(N)=O)NC(=O)[C@@H](NC(=O)[C@H](Cc1ccccc1)NC(=O)[C@H](CCC(N)=O)NC(=O)[C@H](C)NC(=O)[C@H](C)NC(=O)[C@H](CCCNC(=N)N)NC(=O)C(C)(C)NC(=O)[C@H](CC(=O)O)NC(=O)[C@H](CC(C)C)NC(=O)[C@H](Cc1ccc(O)cc1)NC(=O)[C@H](CCCCN)NC(=O)[C@H](CO)NC(=O)[C@H](Cc1ccc(O)cc1)NC(=O)[C@H](CC(=O)O)NC(=O)[C@H](CO)NC(=O)[C@@H](NC(=O)[C@H](Cc1ccccc1)NC(=O)[C@@H](NC(=O)CNC(=O)[C@H](CCC(N)=O)NC(=O)C(C)(C)NC(=O)[C@@H](N)Cc1c[nH]cn1)[C@@H](C)O)[C@@H](C)O)C(C)C)C(=O)N[C@@H](C)C(=O)N[C@H](C(=O)N[C@@H](CCCCN)C(=O)N[C@@H](CCC(N)=O)C(=O)O)[C@@H](C)O [TP667]
pEC50 (human GCGR; [3]): < 7.70 | pEC50 (human GLP1R; [4]): < 7.70

CC(C)C[C@H](NC(=O)[C@H](Cc1ccc(O)cc1)NC(=O)[C@H](CCCCN)NC(=O)[C@H](CO)NC(=O)[C@H](Cc1ccc(O)cc1)NC(=O)[C@H](CC(=O)O)NC(=O)[C@H](CO)NC(=O)[C@@H](NC(=O)[C@H](Cc1ccccc1)NC(=O)[C@@H](NC(=O)CNC(=O)[C@H](CCC(N)=O)NC(=O)C(C)(C)NC(=O)[C@@H](N)Cc1c[nH]cn1)[C@@H](C)O)[C@@H](C)O)C(=O)N[C@@H](CC(=O)O)C(=O)N[C@@H](C)C(=O)N[C@@H](CCCNC(=N)N)C(=O)N[C@@H](C)C(=O)N[C@@H](C)C(=O)N[C@@H](CCCCn1nncc1COCCOCCNC(=O)COCCOCCNC(=O)CC[C@H](NC(=O)CCCCCCCCCCCCCCCCC(=O)O)C(=O)O)C(=O)N[C@@H](CC(=O)O)C(=O)N[C@@H](Cc1ccccc1)C(=O)N[C@H](C(=O)N[C@@H](CCC(N)=O)C(=O)N[C@@H](Cc1c[nH]c2ccccc12)C(=O)N[C@@H](CC(C)C)C(=O)N[C@@H](CCS(C)(=O)=O)C(=O)N[C@@H](CC(=O)O)C(=O)N[C@H](C(N)=O)[C@@H](C)O)C(C)C [TP712] (H-H[Aib]QGTFTSDYSKYLDARAA[X1]([AEEA-γGlu-C18 diacid])DFVQWL[Met(O2)]DT-NH2)
pEC50 (human GCGR; [3]): 9.60 | hGCGR/hGLP1R (hTone) (human GCGR): 0.6 | pEC50 (human GCGR; [1]): > 8.30 | pEC50 (human GLP1R; [4]): 9.35 | pEC50 (human GLP1R; [2]): > 8.30

CC(C)C[C@H](NC(=O)[C@H](CC(C)C)NC(=O)[C@H](Cc1c[nH]c2ccccc12)NC(=O)[C@H](CCC(N)=O)NC(=O)[C@@H](NC(=O)[C@H](Cc1ccccc1)NC(=O)[C@H](CC(=O)O)NC(=O)[C@H](CCC(N)=O)NC(=O)[C@H](C)NC(=O)[C@H](C)NC(=O)[C@H](CCCNC(=N)N)NC(=O)C(C)(C)NC(=O)[C@H](CC(=O)O)NC(=O)[C@H](CC(C)C)NC(=O)[C@H](Cc1ccc(O)cc1)NC(=O)[C@H](CCCCN)NC(=O)[C@H](CO)NC(=O)[C@H](Cc1ccc(CNC(=O)COCCOCCNC(=O)COCCOCCNC(=O)CC[C@H](NC(=O)CCCCCCCCCCCCCCCCCCC(=O)O)C(=O)O)cc1)NC(=O)[C@H](CC(=O)O)NC(=O)[C@H](CO)NC(=O)[C@@H](NC(=O)[C@H](Cc1ccccc1)NC(=O)[C@@H](NC(=O)CNC(=O)[C@H](CCC(N)=O)NC(=O)C(C)(C)NC(=O)[C@@H](N)Cc1c[nH]cn1)[C@@H](C)O)[C@@H](C)O)C(C)C)C(=O)N[C@@H](C)C(=O)N[C@H](C(=O)N[C@@H](CCCCN)C(=O)N[C@@H](CCC(N)=O)C(=O)O)[C@@H](C)O [TP582]
pEC50 (human GCGR; [3]): 8.31 | hGCGR/hGLP1R (hTone) (human GCGR): 1.9 | pEC50 (human GCGR; [1]): > 8.30 | pEC50 (human GLP1R; [2]): > 8.30

CCCCCCCCCCCCCCCC(=O)N[C@@H](CCC(=O)N[C@@H](CCC(=O)NCCCC[C@H](NC(=O)[C@H](CC(=O)O)NC(=O)[C@H](CO)NC(=O)[C@@H](NC(=O)[C@H](Cc1ccccc1)NC(=O)[C@@H](NC(=O)CNC(=O)[C@H](CCC(N)=O)NC(=O)C(C)(C)NC(=O)[C@@H](N)Cc1c[nH]cn1)[C@@H](C)O)[C@@H](C)O)C(=O)N[C@@H](CO)C(=O)N[C@@H](CCCCN)C(=O)N[C@@H](Cc1ccc(O)cc1)C(=O)N[C@@H](CC(C)C)C(=O)N[C@@H](CC(=O)O)C(=O)N[C@@H](C)C(=O)N[C@@H](CCCNC(=N)N)C(=O)N[C@@H](C)C(=O)N[C@@H](C)C(=O)N[C@@H](CCCCNC(=O)COCCOCCNC(=O)COCCOCCNC(=O)CC[C@H](NC(=O)CCCCCCCCCCCCCCC(=O)O)C(=O)O)C(=O)N[C@@H](CC(=O)O)C(=O)N[C@@H](Cc1ccccc1)C(=O)N[C@H](C(=O)N[C@@H](CCC(N)=O)C(=O)N[C@@H](Cc1c[nH]c2ccccc12)C(=O)N[C@@H](CC(C)C)C(=O)N[C@@H](CCS(C)(=O)=O)C(=O)N[C@@H](CC(=O)O)C(=O)N[C@H](C(N)=O)[C@@H](C)O)C(C)C)C(=O)O)C(=O)O [TP606] (H-H[Aib]QGTFTSDK([γGlu-γGlu-Palmitoyl])SKYLDARAAK([AEEA-AEEA-γGlu-C16 diacid])DFVQWL[Met(O2)]DT-NH2; N-terminus assumed)
hGCGR/hGLP1R (hTone) (human GCGR): 0.5 | pEC50 (human GCGR; [1]): > 8.30 | pEC50 (human GLP1R; [2]): > 8.30

CC(C)C[C@H](NC(=O)[C@H](Cc1c[nH]c2ccccc12)NC(=O)[C@H](CCC(N)=O)NC(=O)[C@@H](NC(=O)[C@H](Cc1ccccc1)NC(=O)[C@H](CC(=O)O)NC(=O)[C@H](CCC(N)=O)NC(=O)[C@H](C)NC(=O)[C@H](C)NC(=O)[C@H](CCCNC(=N)N)NC(=O)C(C)(C)NC(=O)[C@H](CC(=O)O)NC(=O)[C@H](CC(C)C)NC(=O)[C@H](Cc1ccc(O)cc1)NC(=O)[C@H](CCCCN)NC(=O)[C@H](CO)NC(=O)[C@H](Cc1ccc(O)cc1)NC(=O)[C@H](CC(=O)O)NC(=O)[C@H](CO)NC(=O)[C@@H](NC(=O)[C@H](Cc1ccccc1)NC(=O)[C@@H](NC(=O)CNC(=O)[C@H](CCC(N)=O)NC(=O)C(C)(C)NC(=O)[C@@H](N)Cc1c[nH]cn1)[C@@H](C)O)[C@@H](C)O)C(C)C)C(=O)N[C@@H](CC(C)C)C(=O)N[C@@H](CCCCNC(=O)COCCOCCNC(=O)COCCOCCNC(=O)CC[C@H](NC(=O)CCCCCCCCCCCCCCCCC(=O)O)C(=O)O)C(=O)N[C@H](C(=O)N[C@@H](CCCCN)C(=O)N[C@@H](CCC(N)=O)C(=O)O)[C@@H](C)O [TP683] (H-H[Aib]QGTFTSDYSKYLD[Aib]RAAQDFVQWLLK([AEEA-AEEA-γGlu-C18 diacid])TKQ-OH; N-terminus assumed)
pEC50 (human GCGR; [3]): 8.30 | pEC50 (human GCGR; [1]): > 8.30 | pEC50 (human GLP1R; [2]): > 8.30
